# The list shows a part of the results.
# Legend:
# Test in all cases: glycan array binding signal (z-score within array); higher = stronger binding
# Conditions in all cases: glycan notation: IUPAC condensed, linker removed
# Neu5Ac(a2-3)Gal = molecular target: Neu5Ac(a2-3)Gal
# In short: (§1)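 The Consortium for Functional Glycomics database supplied 3228 glycan arrays, of which those lacking an available protein sequence were dropped. The binding signal, a within-array Z-score, was averaged across arrays of the same protein sequence and across linkers. Negative scores can be read as non-binding.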
# [1] = molecular target: Neu5Ac(a2-3)Gal(b1-3)GalNAc
# In short: as §1
# [2] = molecular target: Neu5Ac(a2-3)Gal(b1-3)GalNAc(b1-3)Gal(a1-4)Gal(b1-4)Glc
# In short: as §1
# [3] = molecular target: Neu5Ac(a2-3)Gal(b1-3)GalNAc(b1-4)[Neu5Ac(a2-3)]Gal(b1-4)Glc
# In short: as §1
# [4] = molecular target: Neu5Ac(a2-3)Gal(b1-3)GalNAc(b1-4)[Neu5Ac(a2-8)Neu5Ac(a2-3)]Gal(b1-4)Glc
# In short: as §1
# [5] = molecular target: Neu5Ac(a2-3)Gal(b1-3)GalNAc6S
# In short: as §1
# [6] = molecular target: Neu5Ac(a2-3)Gal(b1-3)GlcNAc
# In short: as §1
# [7] = molecular target: Neu5Ac(a2-3)Gal(b1-3)GlcNAc(b1-2)Man
# In short: as §1
# [8] = molecular target: Neu5Ac(a2-3)Gal(b1-3)GlcNAc(b1-2)Man(a1-3)[GlcNAc(b1-4)][Neu5Ac(a2-3)Gal(b1-3)GlcNAc(b1-2)Man(a1-6)]Man(b1-4)GlcNAc(b1-4)GlcNAc
# In short: as §1
# [9] = molecular target: Neu5Ac(a2-3)Gal(b1-3)GlcNAc(b1-2)Man(a1-3)[Neu5Ac(a2-3)Gal(b1-3)GlcNAc(b1-2)Man(a1-6)]Man(b1-4)GlcNAc(b1-4)GlcNAc
# In short: as §1
# [10] = molecular target: Neu5Ac(a2-3)Gal(b1-3)GlcNAc(b1-3)Gal(b1-3)GlcNAc
# In short: as §1
# [11] = molecular target: Neu5Ac(a2-3)Gal(b1-3)GlcNAc(b1-3)Gal(b1-4)GlcNAc
# In short: as §1
# [12] = molecular target: Neu5Ac(a2-3)Gal(b1-3)GlcNAc(b1-3)GalNAc
# In short: as §1
# [13] = molecular target: Neu5Ac(a2-3)Gal(b1-3)GlcNAc(b1-4)Gal(b1-4)Glc
# In short: as §1
# [14] = molecular target: Neu5Ac(a2-3)Gal(b1-3)GlcNAc(b1-6)GalNAc
# In short: as §1
# [15] = molecular target: Neu5Ac(a2-3)Gal(b1-3)GlcNAc6S
# In short: as §1
# [16] = molecular target: Neu5Ac(a2-3)Gal(b1-3)[Fuc(a1-4)]GlcNAc
# In short: as §1
# [17] = molecular target: Neu5Ac(a2-3)Gal(b1-3)[Fuc(a1-4)]GlcNAc(b1-3)Gal(b1-3)[Fuc(a1-4)]GlcNAc
# In short: as §1
# [18] = molecular target: Neu5Ac(a2-3)Gal(b1-3)[Fuc(a1-4)]GlcNAc(b1-3)Gal(b1-4)[Fuc(a1-3)]GlcNAc
# In short: as §1
# [19] = molecular target: Neu5Ac(a2-3)Gal(b1-3)[GlcNAc(b1-6)]GalNAc
# In short: as §1
# [20] = molecular target: Neu5Ac(a2-3)Gal(b1-3)[Neu5Ac(a2-6)]GalNAc
# In short: as §1
# [21] = molecular target: Neu5Ac(a2-3)Gal(b1-3)[Neu5Ac(a2-6)]GlcNAc(b1-3)[Fuc(a1-3)[Gal(b1-4)]GlcNAc(b1-6)]Gal(b1-4)Glc
# In short: as §1
# [22] = molecular target: Neu5Ac(a2-3)Gal(b1-3)]Neu5Ac(a2-3)Gal(b1-4)]GlcNAc
# In short: as §1
# Neu5Ac(a2-3)Gal(b1-4)Glc = molecular target: Neu5Ac(a2-3)Gal(b1-4)Glc
# In short: as §1
# [23] = molecular target: Neu5Ac(a2-3)Gal(b1-4)GlcNAc
# In short: as §1
# [24] = molecular target: Neu5Ac(a2-3)Gal(b1-4)GlcNAc(b1-2)Man
# In short: as §1
# [25] = molecular target: Neu5Ac(a2-3)Gal(b1-4)GlcNAc(b1-2)Man(a1-3)[GlcNAc(b1-4)][Neu5Ac(a2-3)Gal(b1-4)GlcNAc(b1-2)Man(a1-6)]Man(b1-4)GlcNAc(b1-4)GlcNAc
# In short: as §1
# [26] = molecular target: Neu5Ac(a2-3)Gal(b1-4)GlcNAc(b1-2)Man(a1-3)[Neu5Ac(a2-3)Gal(b1-4)GlcNAc(b1-2)Man(a1-6)]Man(b1-4)GlcNAc(b1-4)GlcNAc
# In short: as §1
# [27] = molecular target: Neu5Ac(a2-3)Gal(b1-4)GlcNAc(b1-2)Man(a1-3)[Neu5Ac(a2-3)Gal(b1-4)GlcNAc(b1-2)Man(a1-6)]Man(b1-4)GlcNAc(b1-4)[Fuc(a1-6)]GlcNAc
# In short: as §1
# [28] = molecular target: Neu5Ac(a2-3)Gal(b1-4)GlcNAc(b1-2)Man(a1-3)[Neu5Ac(a2-6)Gal(b1-4)GlcNAc(b1-2)Man(a1-6)]Man(b1-4)GlcNAc(b1-4)GlcNAc
# In short: as §1
# [29] = molecular target: Neu5Ac(a2-3)Gal(b1-4)GlcNAc(b1-2)[Neu5Ac(a2-3)Gal(b1-4)GlcNAc(b1-4)]Man(a1-3)[GlcNAc(b1-4)][Neu5Ac(a2-3)Gal(b1-4)GlcNAc(b1-2)[Neu5Ac(a2-3)Gal(b1-4)GlcNAc(b1-6)]Man(a1-6)]Man(b1-4)GlcNAc(b1-4)GlcNAc
# In short: as §1
# [30] = molecular target: Neu5Ac(a2-3)Gal(b1-4)GlcNAc(b1-2)[Neu5Ac(a2-3)Gal(b1-4)GlcNAc(b1-4)]Man(a1-3)[GlcNAc(b1-4)][Neu5Ac(a2-3)Gal(b1-4)GlcNAc(b1-4)Man(a1-6)]Man(b1-4)GlcNAc(b1-4)GlcNAc
# In short: as §1
# [31] = molecular target: Neu5Ac(a2-3)Gal(b1-4)GlcNAc(b1-2)[Neu5Ac(a2-3)Gal(b1-4)GlcNAc(b1-6)]Man(a1-6)[Neu5Ac(a2-3)Gal(b1-4)GlcNAc(b1-2)Man(a1-3)]Man(b1-4)GlcNAc(b1-4)GlcNAc
# In short: as §1
# [32] = molecular target: Neu5Ac(a2-3)Gal(b1-4)GlcNAc(b1-2)[Neu5Ac(a2-3)Gal(b1-4)GlcNAc(b1-6)]Man(a1-6)[Neu5Ac(a2-3)Gal(b1-4)GlcNAc(b1-2)Man(a1-3)][GlcNAc(b1-4)]Man(b1-4)GlcNAc(b1-4)GlcNAc
# In short: as §1
# [33] = molecular target: Neu5Ac(a2-3)Gal(b1-4)GlcNAc(b1-3)Gal
# In short: as §1
# [34] = molecular target: Neu5Ac(a2-3)Gal(b1-4)GlcNAc(b1-3)Gal(b1-3)GlcNAc
# In short: as §1
# [35] = molecular target: Neu5Ac(a2-3)Gal(b1-4)GlcNAc(b1-3)Gal(b1-4)GlcNAc
# In short: as §1
# [36] = molecular target: Neu5Ac(a2-3)Gal(b1-4)GlcNAc(b1-3)Gal(b1-4)GlcNAc(b1-2)Man(a1-3)[Neu5Ac(a2-3)Gal(b1-4)GlcNAc(b1-3)Gal(b1-4)GlcNAc(b1-2)Man(a1-6)]Man(b1-4)GlcNAc(b1-4)GlcNAc
# In short: as §1
# [37] = molecular target: Neu5Ac(a2-3)Gal(b1-4)GlcNAc(b1-3)Gal(b1-4)GlcNAc(b1-3)Gal(b1-4)GlcNAc
# In short: as §1
# [38] = molecular target: Neu5Ac(a2-3)Gal(b1-4)GlcNAc(b1-3)Gal(b1-4)GlcNAc(b1-3)Gal(b1-4)GlcNAc(b1-2)Man(a1-3)[Neu5Ac(a2-3)Gal(b1-4)GlcNAc(b1-3)Gal(b1-4)GlcNAc(b1-3)Gal(b1-4)GlcNAc(b1-2)Man(a1-6)]GalNAc
# In short: as §1
# [39] = molecular target: Neu5Ac(a2-3)Gal(b1-4)GlcNAc(b1-3)Gal(b1-4)GlcNAc(b1-3)GalNAc
# In short: as §1
# [40] = molecular target: Neu5Ac(a2-3)Gal(b1-4)GlcNAc(b1-3)Gal(b1-4)GlcNAc(b1-3)[Neu5Ac(a2-3)Gal(b1-4)GlcNAc(b1-3)Gal(b1-4)GlcNAc(b1-6)]GalNAc
# In short: as §1
# [41] = molecular target: Neu5Ac(a2-3)Gal(b1-4)GlcNAc(b1-3)Gal(b1-4)GlcNAc(b1-6)[Gal(b1-3)]GalNAc
# In short: as §1
# [42] = molecular target: Neu5Ac(a2-3)Gal(b1-4)GlcNAc(b1-3)Gal(b1-4)[Fuc(a1-3)]GlcNAc
# In short: as §1
# [43] = molecular target: Neu5Ac(a2-3)Gal(b1-4)GlcNAc(b1-3)GalNAc
# In short: as §1
binder,measurement,setting,value
"SRA-1 (Homo sapiens), P21757 (protein) MEQWDHFHNQQEDTDSCSESVKFDARSMTALLPPNPKNSPSLQEKLKSFKAALIALYLLVFAVLIPLIGIVAAQLLKWETKNCSVSSTNANDITQSLTGKGNDSEEEMRFQEVFMEHMSNMEKRIQHILDMEANLMDTEHFQNFSMTTDQRFNDILLQLSTLFSSVQGHGNAIDEISKSLISLNTTLLDLQLNIENLNGKIQENTFKQQEEISKLEERVYNVSAEIMAMKEEQVHLEQEIKGEVKVLNNITNDLRLKDWEHSQTLRNITLIQGPPGPPGEKGDRGPTGESGPRGFPGPIGPPGLKGDRGAIGFPGSRGLPGYAGRPGNSGPKGQKGEKGSGNTLTPFTKVRLVGGSGPHEGRVEILHSGQWGTICDDRWEVRVGQVVCRSLGYPGVQAVHKAAHFGQGTGPIWLNEVFCFGRESSIEECKIRQWGTRACSHSEDAGVTCTL",glycan array binding signal (z-score),Neu5Ac(a2-3)Gal,-0.299
same,glycan array binding signal (z-score),[1],-0.387
same,glycan array binding signal (z-score),[2],-0.833
same,glycan array binding signal (z-score),[3],0.198
same,glycan array binding signal (z-score),[4],-0.456
same,glycan array binding signal (z-score),[5],-0.086
same,glycan array binding signal (z-score),[6],-0.14
same,glycan array binding signal (z-score),[7],0.294
same,glycan array binding signal (z-score),[8],-0.47
same,glycan array binding signal (z-score),[9],-0.506
same,glycan array binding signal (z-score),[10],-0.135
same,glycan array binding signal (z-score),[11],-0.357
same,glycan array binding signal (z-score),[12],-0.524
same,glycan array binding signal (z-score),[13],-0.334
same,glycan array binding signal (z-score),[14],0.514
same,glycan array binding signal (z-score),[15],0.048
same,glycan array binding signal (z-score),[16],0.216
same,glycan array binding signal (z-score),[17],-0.429
same,glycan array binding signal (z-score),[18],0.765
same,glycan array binding signal (z-score),[19],-0.449
same,glycan array binding signal (z-score),[20],-0.285
same,glycan array binding signal (z-score),[21],-0.33
same,glycan array binding signal (z-score),[22],-0.533
same,glycan array binding signal (z-score),Neu5Ac(a2-3)Gal(b1-4)Glc,-0.031
same,glycan array binding signal (z-score),[23],-0.137
same,glycan array binding signal (z-score),[24],0.757
same,glycan array binding signal (z-score),[25],0.307
same,glycan array binding signal (z-score),[26],-0.559
same,glycan array binding signal (z-score),[27],-0.509
same,glycan array binding signal (z-score),[28],-0.373
same,glycan array binding signal (z-score),[29],0.146
same,glycan array binding signal (z-score),[30],0.157
same,glycan array binding signal (z-score),[31],-0.385
same,glycan array binding signal (z-score),[32],-0.583
same,glycan array binding signal (z-score),[33],0.067
same,glycan array binding signal (z-score),[34],-0.415
same,glycan array binding signal (z-score),[35],0.027
same,glycan array binding signal (z-score),[36],0.214
same,glycan array binding signal (z-score),[37],-0.363
same,glycan array binding signal (z-score),[38],0.52
same,glycan array binding signal (z-score),[39],0.073
same,glycan array binding signal (z-score),[40],0.253
same,glycan array binding signal (z-score),[41],-0.496
same,glycan array binding signal (z-score),[42],0.338
same,glycan array binding signal (z-score),[43],-0.705
